# Reference: publication PMC4336329 (PLoS ONE, 2015)
# The whole screen tested about 310,000 compounds, of which about 14,000 (4.5%) showed an effect of 50% or more. Effects have a minus sign here. This is one part of the list. Where a SMILES comes first, the peptide text is derived from it. [ ]: non-standard residue; d: D form. The star is where a group is joined. Tic = O=C(O)[C@@H]1Cc2ccccc2CN1; Boc = CC(C)(C)OC(=O)*
# Target: human ether-à-go-go-related gene (hERG) potassium channel (human, UniProt Q12809)
# Test: primary screen, population patch clamp on CHO cells stably expressing hERG
# 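Note: peak tail current of the secondary pulse compared with the same well before compound.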
# human ether-à-go-go-related gene (hERG) potassium channel, sequence (Q12809 whole entry, looked up): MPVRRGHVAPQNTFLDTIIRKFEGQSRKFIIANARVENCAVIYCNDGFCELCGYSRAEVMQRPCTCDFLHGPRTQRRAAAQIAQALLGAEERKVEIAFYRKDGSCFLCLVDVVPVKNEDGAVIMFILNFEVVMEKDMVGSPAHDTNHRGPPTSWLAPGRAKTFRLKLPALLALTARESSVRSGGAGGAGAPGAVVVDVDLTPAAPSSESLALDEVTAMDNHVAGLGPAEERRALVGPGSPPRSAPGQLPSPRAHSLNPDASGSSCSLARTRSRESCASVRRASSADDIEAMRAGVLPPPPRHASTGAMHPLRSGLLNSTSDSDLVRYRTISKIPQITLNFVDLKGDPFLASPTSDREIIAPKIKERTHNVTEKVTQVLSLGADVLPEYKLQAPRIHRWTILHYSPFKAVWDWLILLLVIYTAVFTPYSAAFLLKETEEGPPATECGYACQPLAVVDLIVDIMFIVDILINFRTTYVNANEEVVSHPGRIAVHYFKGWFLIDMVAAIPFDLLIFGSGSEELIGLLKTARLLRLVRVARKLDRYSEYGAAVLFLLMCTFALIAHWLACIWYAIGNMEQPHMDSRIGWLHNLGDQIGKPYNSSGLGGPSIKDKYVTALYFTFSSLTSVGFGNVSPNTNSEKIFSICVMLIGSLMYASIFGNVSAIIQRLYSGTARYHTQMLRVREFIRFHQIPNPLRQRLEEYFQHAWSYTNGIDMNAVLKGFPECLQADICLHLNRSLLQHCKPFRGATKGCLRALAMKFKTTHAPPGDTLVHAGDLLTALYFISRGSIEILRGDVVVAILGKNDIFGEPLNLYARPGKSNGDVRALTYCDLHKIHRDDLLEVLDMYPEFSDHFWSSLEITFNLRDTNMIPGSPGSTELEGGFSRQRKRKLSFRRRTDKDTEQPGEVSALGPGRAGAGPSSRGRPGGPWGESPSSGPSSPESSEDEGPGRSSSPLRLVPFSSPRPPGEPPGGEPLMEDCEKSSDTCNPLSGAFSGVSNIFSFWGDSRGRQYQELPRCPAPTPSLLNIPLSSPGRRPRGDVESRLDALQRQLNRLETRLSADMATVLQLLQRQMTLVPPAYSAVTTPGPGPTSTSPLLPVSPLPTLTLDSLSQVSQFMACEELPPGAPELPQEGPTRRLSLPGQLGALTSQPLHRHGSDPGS
row,SMILES,"hERG current change (%, negative = inhibition) at 10uM"
1,Fc1ccc2c(c1)/C(=N/Nc1ccccn1)CCS2,8.25%
2,CN(C)CCNC(=O)c1[nH]nc2c1CCc1ccccc1-2,-13.9%
3,CC(=O)OC1CSc2nc3ccccc3n2C1 (stereo not drawn),-10.1%
4,Cc1cccc(NC(=O)CC2c3ccccc3Oc3ccccc32)c1,18%
5,COc1ccc(-c2cc(=O)c3ccccc3n2C)cc1,-7.23%
6,COc1ccc(Nc2nc(N)nc(CSc3nc(C)cc(C)n3)n2)cc1,17.5%
7,O=C(COC(=O)/C=C/c1cccc(Cl)c1)NCCc1ccccc1,0.0487%
8,CCNC(=O)CN(c1ccc(Br)c(C)c1)S(C)(=O)=O,23.4%
9,Cc1cc(C)n(C(=O)c2ccc([N+](=O)[O-])cc2Cl)n1,13.3%
10,Cc1ccc(OCCOCCNC(C)(C)C)c([N+](=O)[O-])c1.O=C(O)C(=O)O,0.542%
11,CCOc1cc2c(cc1OCC)C(c1ccc(OC)cc1)N(c1ccccc1)C(=O)C2 (stereo not drawn),-57.5%
12,COc1ccc(-c2nc3cc(NC(=O)c4ccc5c(c4)OCO5)ccc3o2)cc1,7.07%
13,Cc1cc(Cl)c2oc(C(=O)N3CCCCC3CCN3CCCC3=O)c(C)c2c1 (stereo not drawn),-12.4%
14,CNC(=O)c1c[nH]c2ccc(S(=O)(=O)Nc3cccc(SC)c3)cc2c1=O,18.7%
15,Cc1ccc(NC(=O)CCC(=O)OCc2ccc(Br)cc2)cc1,20.6%
16,CCN(CC)S(=O)(=O)c1ccc(C(=O)NCc2n[nH]c(=S)n2-c2ccccc2OC)cc1,23.9%
17,Oc1cccc(C=Nc2cccc3ccccc23)c1O,27.6%
18,C=C(C)C(=O)Nc1cccnc1Oc1ccc(F)cc1,0.293%
19,Cc1cccc(NC(=O)c2ccc(S(=O)(=O)N(C)C)cc2)c1,-18.6%
20,O=C(CSc1ncnc2[nH]ncc12)Nc1nc(-c2ccc(F)c(F)c2)cs1,44.7%
21,O=C(COC(=O)c1ccc(Cl)nc1)NC1CCCCCC1,-5.25%
22,COCCCNC(=O)Cn1nnc(-c2ccccc2NC(=O)c2ccccc2F)n1,-26.3%

row,SMILES,"hERG current change (%, negative = inhibition) at 10uM"
1,Cc1ccc(CN2CCNC(=O)C2CC(=O)N(C)C(C2CC2)C2CC2)o1 (stereo not drawn),11.8%
2,CC(C)c1ccc(S(=O)(=O)c2nnn3c2nc(N2CCCCC2)c2ccccc23)cc1,4.98%
3,Nc1cnc(CNc2ccccc2Cl)cn1,2.07%
4,CCOc1ccc(C(=O)NCc2ccccc2OC)cc1,-12%
5,Cc1ccccc1NC(=S)N/N=C1\CC(C)(C)Oc2ccc(O)cc21,42.1%
6,O=C(OC(C(=O)O)C(OC(=O)c1ccccc1)C(=O)NCc1ccccc1)c1ccccc1 (stereo not drawn),15.3%
7,C=CCn1c(O)c(N=NC(=S)Nc2ccc(OC)cc2)c2ccccc21,5.27%
8,COc1ccc(CNC(=O)C2CCN(S(=O)(=O)c3ccc4c(c3)NC(=O)CO4)CC2)cc1,16.7%
9,CCc1ccc(-c2nc(CS(=O)CC(=O)NCc3ccco3)c(C)o2)cc1 (stereo not drawn),1.94%
10,CN1CCN(C(=O)c2ccccc2-c2nc(-c3ccc(Cl)cc3)no2)CC1,-65.6%
11,Clc1ccc(C2=CSC3=NCCN23)c(Cl)c1.[Br-],-59.4%
12,CCCCNC(=O)CCc1c(C)nc2nc(-c3cc(OC)cc(OC)c3)nn2c1C,-37.5%
13,COc1ccc(C2=C(C)C(N3CCN(C(=O)c4ccco4)CC3)=NS2(=O)=O)cc1,-7.37%
14,CC(=O)Nc1ccccc1NC(=O)c1ccc(C)cc1C,23.7%
15,COc1ccc(CCN(C)c2ccc(S(=O)(=O)N3CCCC3)cn2)cc1OC,16%
16,COc1ccc(C(C#N)N2CCC(c3ccccc3)=N2)cc1 (stereo not drawn),8.73%
17,Cc1nn(-c2ccccc2)c(C)c1C(=O)OCC(=O)Nc1ccccc1F,4.48%
18,O=c1[nH]c(-c2ccccc2F)nc2c1sc(=S)n2Cc1ccccc1,22.6%
19,Cc1nn(-c2ccccc2)c(NC(=O)c2cccs2)c(-c2ccccc2Cl)c1=O,3.53%
20,CC(C)NC(=O)COC(=O)c1cccc(NS(=O)(=O)/C=C/c2ccccc2)c1,-18%
21,O=C(Nc1ccccc1Cl)N(Cc1nc2ccccc2c(=O)[nH]1)Cc1cccs1,-1.42%
22,CC(C)(C)OC(=O)N1Cc2ccccc2C[C@H]1C(=O)N1CCC[C@H]1C(=O)O (Boc-[Tic]-Pro-OH),22.8%

row,SMILES,"hERG current change (%, negative = inhibition) at 10uM"
1,COc1ccccc1NC(=O)Cc1c(F)cccc1Cl,-1.33%
2,COc1ccc(C(=O)NCC(=O)N/N=C/c2cn(C)c3ccccc23)cc1OC,6.28%
3,Clc1ccc(Oc2nc(N3CCOCC3)nc(N3CCOCC3)n2)c(C2CCCCC2)c1,12.4%
4,Cc1nn(-c2ccccc2)c(C)c1C(=O)NNC(=O)C(F)(F)F,9.26%
5,OCCCNC(=S)NC1CCCC1,21.8%
6,CCOC(=O)C1(CCOc2ccccc2)CCN(CC=C(C)C)CC1,-50.2%
7,O=C(NCc1nnc(SCC(=O)N2CCCCC2)o1)c1c(F)cccc1Cl,9.42%
8,CC1=C(C(=O)OCCCBr)C(c2ccc3c(c2)OCO3)NC(=O)N1 (stereo not drawn),5.39%
9,Cc1ccc(C)n1-c1ccc(C(=O)NN=C2CCCC2)cc1,-12.9%
10,Cc1ccc(C(=O)NNC(=O)CSc2nnc(-c3ccccc3)n2Cc2ccccc2)cc1,-29.4%
11,Cc1cc(C)n(-c2cccc(CN(C)Cc3nc(-c4cnccn4)no3)c2)n1,10.8%
12,Cc1ccc(-c2cc3nc(C)cc(NCc4ccco4)n3n2)cc1,-13.9%
13,O=C(Cc1ccc(Cl)c(Cl)c1)Nc1ccc2[nH]c(=O)[nH]c2c1,0.185%
14,COc1ccc(C2OC(=O)CC2C(=O)NC2CCCCCC2)cc1OC (stereo not drawn),-4.28%
15,Cc1ccc(-c2csc(N3CCN(c4cc5c(cc4Cl)nc(-c4ccncc4)n5CCOCCO)CC3)n2)cc1,4.81%
16,COc1ccc(N2CCN(S(=O)(=O)c3c(C)nc4sccn4c3=O)CC2)cc1,-9.86%
17,CCOC(=O)c1cc2sc(C)cc2n1CC(=O)Nc1cccc(C)c1C,-11.8%
18,COc1ccccc1C(=O)Nc1nnc(-c2ccc3c(c2)CCCC3)o1,-2.63%
19,O=C(c1ccccc1[N+](=O)[O-])N1CC2C3C=CC(C3)C2C1 (stereo not drawn),17.9%
20,Cc1ccc(C)c(-c2csc(-c3cccnc3)n2)c1,-1.84%
21,O=C(O)CCCCCN1C(=O)C2CCCCC2C1=O (stereo not drawn),12.7%
22,Cc1cc(OC(=O)c2ccccc2Cl)c([N+](=O)[O-])c(=O)[nH]1,6.58%

row,SMILES,"hERG current change (%, negative = inhibition) at 10uM"
1,CC(C)Sc1sc(C(=O)O)c(-c2ccc(Cl)cc2)c1C#N,13.6%
2,O=C(c1cccc(OC2CCN(Cc3ccc(F)cc3Cl)CC2)c1)N1CCCC1,-26.4%
3,O=C(Oc1ccc(/C=N/n2cnnc2)cc1)c1cccc([N+](=O)[O-])c1,6.89%
4,O=C(Cn1cnc2c(nnn2-c2cccc(Cl)c2)c1=O)NCc1ccccc1,3.6%
5,O=C(CSc1ncn[nH]1)Nc1nsc(-c2ccccc2)n1,-4.5%
6,Cc1cc(S(=O)(=O)N2CCCOC2CNC(=O)C(=O)NCCCN2CCOCC2)ccc1F (stereo not drawn),10.3%
7,COc1ccc(NC(=O)C/C(C)=N/NC(=O)c2cnccn2)c(OC)c1,9.22%
8,CN(C)S(=O)(=O)c1ccc(NC(=O)c2cc(-c3cccs3)nc3ccccc23)cc1,8.68%
9,Cc1ccc(NC(=O)CCC(=O)N/N=C/c2ccco2)c(C)c1,12.9%
10,[O-]/[N+](=C\c1ccc(OC(F)F)cc1)c1ccccc1,-14.3%
11,CCOC(=O)c1ccc(NC(=O)NCc2c(C)nn(CC)c2C)cc1,10.9%
12,Cc1[nH]n(-c2ccccc2)c(=O)c1-c1ccc(Cl)cc1,9.3%
13,CCN(CC)C(=O)c1ccc(NC(=O)COc2ccc(-c3nn(C)c(=O)c4ccccc34)cc2)cc1,1.52%
14,O=c1c(Cl)c(NCc2ccccc2Cl)cnn1C12CC3CC(CC(C3)C1)C2,-5.06%
15,Cc1cc(C)n(C(=O)Cn2nc(C)c(Cl)c2C)n1,-1.61%
16,CC12OC1C1(O)CCCC1=CC2=O (stereo not drawn),8.66%
17,N#Cc1cnn2c(-c3cccc(C(F)(F)F)c3)ccnc12,-52.8%
18,O=C(Nc1cccc(S(=O)(=O)N2CCCCCC2)c1)C1CCN(C(=O)c2ccc(Cl)cc2)CC1,-41.9%
19,COCc1ccc([C@@H]2C[C@H]3CN(Cc4cccnc4)C(=O)[C@]34CCCN24)o1,-3.38%
20,COc1ccc(OCC(=O)OCCN(C)C)cc1.Cl,-0.825%
21,CC(=O)Nc1ccc(S(=O)(=O)Nc2nc3ccccc3nc2Nc2ccc(O)c(C(=O)O)c2)cc1,15.8%
